Some of the results follow. Single values are uncertain, as repeats are few or missing.
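Note: cells treated in 1,536-well plates, then fixed and DAPI-stained, with nuclei counted from automated high-throughput microscope images.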

This assay deals with IST-MEL1. As to the kind of experiment: cell count relative to DMSO control; melanoma cells; higher = more viable cells. To be noted: library dose: standard library concentration; 72 h.
In turn, `CC(=O)c1c(C)c2cnc(Nc3ccc(N4CCNCC4)cn3)nc2n(C2CCCC2)c1=O` [palbociclib] + NCC(=O)Nc1ccc(-n2nc(C(F)(F)F)cc2-c2ccc3c(ccc4ccccc43)c2)cc1 [OSU03012] (first compound 0.2 µM, partner dose 5 µM) showed a cell count of 62.1%.

Compound `Nc1nc(F)nc2c1ncn2[C@@H]1O[C@H](CO)[C@@H](O)[C@@H]1O` [fludarabine] + Nc1cccc2c1CN(C1CCC(=O)NC1=O)C2=O [lenalidomide] (first compound 1 µM, partner dose 5 µM) came in with a cell count of 62.2%.

The compound `CC(=O)O[C@@]12CO[C@@H]1C[C@H](O)[C@@]1(C)C(=O)[C@H](O)C3=C(C)[C@@H](OC(=O)[C@H](O)[C@@H](NC(=O)OC(C)(C)C)c4ccccc4)C[C@@](O)([C@@H](OC(=O)c4ccccc4)[C@H]21)C3(C)C` [Docetaxel] + Oc1cc(-c2nc(-c3ccccc3)[nH]c2-c2ccncc2)ccc1Cl [L779450] (first compound 0.0005 µM, partner dose 1 µM) had a cell count of 43.1%.

In turn, `Nc1ncn([C@H]2C[C@H](O)[C@@H](CO)O2)c(=O)n1` [decitabine] + CC1(C)NC(=O)N(c2ccc([N+](=O)[O-])c(C(F)(F)F)c2)C1=O [nilutamide] (first compound 0.5 µM, partner dose 5 µM) yielded a cell count of 68.6%.

`CC(=O)O[C@@]12CO[C@@H]1C[C@H](O)[C@@]1(C)C(=O)[C@H](O)C3=C(C)[C@@H](OC(=O)[C@H](O)[C@@H](NC(=O)OC(C)(C)C)c4ccccc4)C[C@@](O)([C@@H](OC(=O)c4ccccc4)[C@H]21)C3(C)C` [Docetaxel] + CN(NC(=O)CC(=O)NN(C)C(=S)c1ccccc1)C(=S)c1ccccc1 [STA4783] (first compound 0.0005 µM, partner dose 0.03 µM) returned a cell count of 20%.

`CC(=O)O[C@@]12CO[C@@H]1C[C@H](O)[C@@]1(C)C(=O)[C@H](O)C3=C(C)[C@@H](OC(=O)[C@H](O)[C@@H](NC(=O)OC(C)(C)C)c4ccccc4)C[C@@](O)([C@@H](OC(=O)c4ccccc4)[C@H]21)C3(C)C` [Docetaxel] + O=C(O)[C@@H]1[O][Sb](=[O])([O][Sb]2(=[O])[O][C@H]([C@H](O)CO)[C@H](O)[C@H](C(=O)O)[O]2)[O][C@H]([C@H](O)CO)[C@@H]1O [stibogluconate] (first compound 0.0005 µM, partner dose 10 µM) registered a cell count of 40.3%.

Take `Nc1ccn([C@@H]2O[C@H](CO)[C@@H](O)C2(F)F)c(=O)n1` [gemcitabine] + O=C(O)C(=O)Nc1sc2c(c1C(=O)O)CCNC2 [TCS401] (first compound 0.002 µM, partner dose 8.33333 µM): the cell count was found to be 46.9%.

Consider `CC(=O)O[C@@]12CO[C@@H]1C[C@H](O)[C@@]1(C)C(=O)[C@H](O)C3=C(C)[C@@H](OC(=O)[C@H](O)[C@@H](NC(=O)OC(C)(C)C)c4ccccc4)C[C@@](O)([C@@H](OC(=O)c4ccccc4)[C@H]21)C3(C)C` [Docetaxel] + C[C@]1(c2nc3c(C(N)=O)cccc3[nH]2)CCCN1 [Veliparib] (first compound 0.0005 µM, partner dose 7 µM), for which the cell count was determined as 41.1%.

For `CC(=O)c1c(C)c2cnc(Nc3ccc(N4CCNCC4)cn3)nc2n(C2CCCC2)c1=O` [palbociclib] + N#Cc1c(O)c2c(-c3ccc(-c4ccccc4O)cc3)csc2[nH]c1=O [A769662] (first compound 0.2 µM, partner dose 10 µM), the cell count was 69.8%.

As for `Nc1ccn([C@@H]2O[C@H](CO)[C@@H](O)C2(F)F)c(=O)n1` [gemcitabine] + C=CCNC1=C2C[C@@H](C)C[C@H](OC)[C@H](O)[C@@H](C)/C=C(\C)[C@H](OC(N)=O)[C@@H](OC)/C=C\C=C(/C)C(=O)NC(=CC1=O)C2=O [Tanespimycin] (first compound 0.002 µM, partner dose 0.01 µM), the cell count came out at 35.6%.

`CC(=O)c1c(C)c2cnc(Nc3ccc(N4CCNCC4)cn3)nc2n(C2CCCC2)c1=O` [palbociclib] + O=C(Nc1cccc(Cl)c1)Nc1ncc(CCNc2ncnc3ccsc23)s1 [SNS314] (first compound 0.2 µM, partner dose 0.004 µM) registered a cell count of 59.7%.

Values taken from the supplement of paper PMC4604168 (melanoma cell lines).
